Measurements published in PubChem BioAssay AID1508642 (National Center for Advancing Translational Sciences (NCATS), 2021).
About 200 (0.47%) of roughly 43,000 compounds were called active. About 12% were inconclusive and are not listed. Calls follow the shape of the dose curve; as a rule, active = well fitted cell-killing curve with a large enough effect; inconclusive = small, poorly fitted or top-dose-only effect, or effect the other way; inactive = flat fitted curve, though single readings scatter. Some of the results follow.

assay: Cell viability qHTS assay in S16 Pmp22-F2sN cells; conditions: S16 Pmp22-F2sN Schwann cells (luciferase reporters placed in the Pmp22 gene) viability, CellTiter-Glo, 24 h; series mostly up to 57.5 µM; activity change, negative = cytotoxicity: at the top concentration; also: nearly all actives have a fitted effect of over 65% in size
Procedure, shortened: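 S16 Schwann cells carrying the Pmp22-F2sN reporter, seeded in 1536-well format, were exposed to library compounds for 24 h at 37C. Viability was read as CellTiter-Glo luminescence after 15 min at room temperature.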
% is scaled to controls: 0 for no effect and ±100 for the full control effect.

SMILES | activity change, negative = cytotoxicity
COc1ccc(N2CCN(C3C(=O)c4ccccc4N3C(C)=O)CC2)cc1 (configuration not stated) | inactive: -1.18%
CCc1nn2c(=O)cc(COc3ccc(/C=C(\C#N)C(=O)Nc4ccc(C)cc4)cc3)nc2s1 | inactive: 16.7%
Cc1cccc(N2CCN(Cc3nnc(-c4ccc5c(c4)OCO5)o3)CC2)c1C | inactive: 0.0878%
COc1ccc(NC(=O)Nc2ccccc2OCc2cc(=O)n3ccccc3n2)c(OC)c1 | inactive: 4.52%
O=C(CN1C(=O)C2CCCCN2c2ccc(C(=O)N3CCCC3)cc21)NCc1cccc(F)c1 (configuration not stated) | inactive: 5.57%
O=C(Cn1c(=O)c2cccn2c2ccc(F)cc21)N1CCN(c2ccccc2)CC1 | inactive: -5.54%
CCc1ccc(NC(=O)Cn2c(=O)n(CC3CCCO3)c(=O)c3cc(OC)c(OC)cc32)cc1 (configuration not stated) | inactive: 20%
Cc1ccc(-c2cc(C(F)(F)F)c(C#N)c(SCC(=O)O)n2)cc1 | inactive: -10.4%
O=C(NCc1ccccc1)c1ccc2c(c1)nc1n2CCCCC1 | inactive: 18.2%
Cc1cc(C)cc(NC(=O)Cn2c3ncccc3c(=O)n2-c2ccc(C)c(C)c2)c1 | inactive: -7.52%
Cc1ccc(CSc2ncc(Cl)c(C(=O)Nc3sc4c(c3C(N)=O)CCCC4)n2)cc1 | inactive: 3.69%
O=C(Cn1cnc2nc3c(cc2c1=O)CCCC3)N1CCN(c2ccccc2)CC1 | inactive: -8.65%
Cc1ccc(C(=O)COC(=O)CCC(=O)Nc2ccc(Oc3cc(C)ccc3C(C)C)cc2)cc1 | inactive: 6.38%
CCc1ccc(C2=NN(CCC(=O)NCCc3ccc(Cl)cc3)C(=O)CC2)cc1 | inactive: -8.41%
Cc1ccc2c(c1)-c1c(cnn1CC(=O)Nc1ccccc1C#N)CO2 | inactive: -17.3%
CCOC(=O)c1nnc2c(-c3ccc(Cl)cc3)c(C)nn2c1C | inactive: 28.3%
Cc1c(C(=O)NCCN(C)C)sc2nc3n(c(=O)c12)CCC3 | inactive: 3.88%
O=C(NCC(c1ccccc1)c1ccccc1)c1nn(-c2ccccc2F)nc1CO | inactive: -1.03%
Cc1ccc(CCNC(=O)CCSCc2ccccc2Cl)cc1 | inactive: 18.4%
CCCn1c2ccccc2c2cnn(CC(=O)NC(CCSC)C(=O)OC)c(=O)c21 (configuration not stated) | inactive: 1.94%
Cc1ccc2c(c1)c(=O)c1ccccc1n2CCCC(=O)Nc1c(F)cccc1F | inactive: 3.28%

SMILES | activity change, negative = cytotoxicity
CN(Cc1ccccc1)C(=O)c1cn(C)c2ccc(S(=O)(=O)N(C)C3CCCCC3)cc2c1=O | inactive: -20.6%
COc1cc(NC(=O)c2c(C)oc3ncnc(N4CCCCC4)c23)cc(OC)c1 | inactive: -12%
COc1ccc(/C=C(/C#N)c2nc(-c3ccc(Br)cc3)cs2)cc1 | inactive: 14.1%
Cc1cc(Br)ccc1NC(=O)C1CCN(S(=O)(=O)c2ccc(Br)s2)CC1 | inactive: 22.5%
CCOc1ccc(NC(=O)CCS(=O)(=O)c2ccc(Br)cc2)cc1 | inactive: -12%
COc1ccc(NC(=O)c2c(C)oc3ccc(O)c(CN4CCN(Cc5ccccc5)CC4)c23)cc1 | inactive: -4.34%
Cc1cccc(Cn2c(SCc3ccc(C(=O)NC4CCCCC4)cc3)nc3ccncc32)c1 | inactive: -1.52%
CCC(=O)N1CCc2cc(S(=O)(=O)CCC(=O)NCc3cccc(OC)c3)ccc21 | inactive: -0.351%
COc1cccc(CNC(=O)c2ccc(NC(=O)N3CC(C)Sc4ccccc43)cc2)c1 (configuration not stated) | inactive: 4.74%
Cc1ccccc1Nc1c(-c2ccncc2)nc2ccc(Cl)cn12 | inactive: -8.4%
O=C(c1ccc(CS(=O)c2ccccc2Cl)o1)N1CCN(c2cccc(Cl)c2)CC1 (configuration not stated) | inactive: -8.8%
CC(CNC(=O)CCCn1c(=O)c2cccn2c2cccnc21)c1ccccc1 (configuration not stated) | inactive: -9.03%
Cc1ccc2nc(Cl)c3cc(C(=O)NC4CCCCCC4)sc3c2c1 | inactive: 7.32%
CCC1CN(C(=O)Nc2ccc(C(=O)O)cc2)c2cc(Cl)ccc2O1 (configuration not stated) | inactive: -7.59%
O=C(CSc1cn(CC(=O)N2CCCC2)c2ccccc12)Nc1cc(C(F)(F)F)ccc1Cl | inactive: -26.3%
COc1cc(NC(=O)c2ccc(NC(=O)N3CCSc4ncccc43)cc2)cc(OC)c1 | inactive: 3.75%
CC(C)(C)OC(=O)N1CCC(c2c(C(=O)N3CCN(C(=O)c4ccco4)CC3)cnn2-c2ccccc2)CC1 | inactive: 1.87%
Cc1cccc(CCNC(=O)C2CCCN(S(=O)(=O)c3ccc4c(c3)oc(=O)n4C)C2)c1 (configuration not stated) | inactive: 0.951%
CCOc1cccc2sc(N(CCN(CC)CC)C(=O)c3ccco3)nc12 | inactive: 7.12%
Cc1cccc(C(=O)NCC(=O)OCc2cc(=O)n3nc(C4CC4)sc3n2)c1 | inactive: 2.09%
Cc1cc(C)cc(NC(=O)CCc2c(C)nc3c4cccnc4nn3c2C)c1 | inactive: 13.6%

SMILES | activity change, negative = cytotoxicity
CCOC(=O)Cn1c(=O)n(C2CCCCC2)c2nc(-c3cccc(OC)c3)nc(C(N)=O)c21 | inactive: -5.13%
Cc1cccc(NC(=O)Cc2csc(COc3cccc(C)c3)n2)c1 | inactive: -0.145%
Cc1ccc(CNC(=O)Cn2c(=O)n(-c3cccc(Cl)c3)c(=O)c3sc4ccccc4c32)cc1 | inactive: 5.38%
CCOc1ccc(-c2cc3nc(C4CCN(C(=O)OC(C)(C)C)CC4)c(C(=O)Nc4ccc(C)cc4C)cn3n2)cc1 | inactive: 11.5%
COc1ccccc1N1CCN(C(=O)c2cc3ccc4ccc(C)[nH]c4c3n2)CC1 | inactive: -27.1%
CCOC(=O)C1CCCN(S(=O)(=O)c2csc(C(N)=O)c2)C1 (configuration not stated) | inactive: -0.797%
CCc1nn2c(=O)c(S(=O)(=O)Nc3cccc(F)c3)c(C)nc2s1 | inactive: 19.5%
CCC(Sc1nc2nccnc2c(=O)n1Cc1ccc(C)cc1)C(=O)NC1CCCCC1 (configuration not stated) | inactive: -4.98%
CCOc1ccc(S(=O)(=O)Nc2ccc(-c3ccc(OC)nn3)cc2)cc1 | inactive: 12.2%
Cc1cccc(-n2c(SCC(=O)c3ccccc3)nnc2-c2ccc(Br)cc2)c1 | inactive: -1.45%
Cc1c2cnn(-c3ccccc3)c(=O)c2c(C)n1CC(=O)NCc1ccccc1 | inactive: -8.98%
CCCNC(=O)N1CCN(S(=O)(=O)c2ccc3c(ccn3C)c2)CC1 | inactive: -1.76%
COc1cc2c(c(OC)c1)C(c1cc(OC)c(OC)c(OC)c1)CC(=O)N2 (configuration not stated) | inactive: 24.7%
CCn1c(C)c(C)c2cc(C(=O)NCc3cccc(C)c3)ccc21 | inactive: -4.12%
COc1ccc(NC(=O)/C=C\C(=O)N(c2ccc(C(C)C)cc2)C(C(=O)NCc2ccco2)c2ccc(F)cc2)cc1 (configuration not stated) | inactive: -2.71%
O=C(c1ccccc1)N(Cc1ccco1)Cc1cccs1 | inactive: -4.25%
Cc1cccc(C(=O)Nc2ccc(C(=O)OCc3cc(=O)n4nc(CC(C)C)sc4n3)cc2)c1 | inactive: 0.35%
Cc1ccc(C)c(Cn2c(=O)cc(C)c3c(C)nn(C)c32)c1 | inactive: -11.5%
Cc1ccc(-n2ncc3c(N4CCN(C)CC4)ncnc32)cc1C | inactive: -19%
COc1cccc(CNC(=O)CCc2c(C)c3cc4c(C)coc4c(C)c3oc2=O)c1 | inactive: 1.31%
